# Data as given in the supplement of paper PMC9446081.
# Hit rate of the full screen: of about 39,000 compounds, about 220 (0.56%) showed activity. The list shows a part of the results.
# Tested on: Escherichia coli K-12 BW25113
# Assay: relative growth (OD600 normalised to plate interquartile mean) (fraction); higher = less growth inhibition, active = 0.2 or less
# Details: 50 µM; LB; incubation time: overnight (16-24 h)
# 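Further: static incubation at 37 °C against the wild-type strain, values averaged over two biological replicates.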
row,SMILES,relative growth
1,C[C@H]1CCCCO[C@H](CN(C)Cc2ccc(Cl)c(Cl)c2)[C@@H](C)CN([C@@H](C)CO)C(=O)c2cc(NC(=O)NC3CCCCC3)ccc2O1,inactive: 1
2,CC(C)[Si](C#C[Si](C(C)C)(C(C)C)C(C)C)(O[C@H](C)c1cn([C@H](CO)Cc2ccccc2)nn1)C(C)C,inactive: 1.01
3,Cc1noc(C)c1NC(=O)N(C)C[C@H]1Oc2ccc(NC(=O)Nc3cccc4ccccc34)cc2C(=O)N([C@H](C)CO)C[C@H]1C,inactive: 0.982
4,CCCN(C)C[C@H]1OCCCC[C@H](C)Oc2ccc(NC(=O)NC3CCCCC3)cc2C(=O)N([C@@H](C)CO)C[C@H]1C,inactive: 0.996
5,Cc1cc(C(=O)O)nn1C,inactive: 0.982
6,C[C@@H]1CN([C@H](C)CO)C(=O)c2cc(NC(=O)Nc3ccc4c(c3)OCO4)ccc2O[C@@H](C)CCCCO[C@@H]1CN(C)C(=O)c1ccccc1,inactive: 1.02
7,COc1ccc(S(=O)(=O)Nc2ccc3c(c2)CC(=O)N([C@H](C)CO)C[C@@H](C)[C@@H](CN(C)C(=O)Nc2c(C)noc2C)O3)cc1,inactive: 0.996
8,Cc1c(-c2ccccc2)n(C[C@@H](O)CN)c2ccccc12,inactive: 0.892
9,Cc1nc2c(c(N3CCOCC3)n1)OCC(=O)N2,inactive: 0.997
10,C=CCOC(=O)N(C)C[C@@H]1Oc2ccc(NC(=O)NC(C)C)cc2C(=O)N([C@H](C)CO[Si](C)(C)C(C)(C)C)C[C@H]1C,inactive: 1.02
11,C[C@H](CO)N1C[C@H](C)[C@H](CN(C)Cc2ccc(-c3ccccc3)cc2)Oc2c(NC(=O)Nc3ccccc3)cccc2C1=O,inactive: 0.989
12,C[C@H](CO)N1C[C@H](C)[C@@H](CN(C)Cc2ccc(Oc3ccccc3)cc2)Oc2c(NC(=O)C3CCOCC3)cccc2C1=O,inactive: 1
13,COC(=O)C[C@@H]1C[C@@H](C)[C@@H]2C(=O)c3c(O)c4c(c(O)c3C(=O)[C@@H]2[C@@H]1O)[C@H]1C[C@@H](O)[C@@]4(O)[C@@H](C)O1,inactive: 1.03
14,C=CC(C1=CC(=O)C(OC)=CC1=O)c1ccccc1 (stereo not drawn),inactive: 1.09
15,C[C@@H]1CN([C@H](C)CO)C(=O)c2cc(NC(=O)c3ccccc3)ccc2O[C@@H](C)CCCCO[C@H]1CN(C)Cc1ccc(C(=O)O)cc1,inactive: 1
16,COc1ccc(NC(=O)N(C)C[C@H]2Oc3c(NS(=O)(=O)c4c(C)noc4C)cccc3C(=O)N([C@H](C)CO)C[C@H]2C)cc1,inactive: 0.994
17,C[C@H](CO)N1C[C@H](C)[C@@H](CN(C)Cc2ccc(-c3ccccc3)cc2)Oc2c(NC(=O)Nc3ccccc3)cccc2C1=O,inactive: 1.01
18,CO[C@@H]1CN(C)C(=O)c2cc(NS(=O)(=O)CC(F)(F)F)ccc2OC[C@@H](C)N(Cc2nccs2)C[C@@H]1C,inactive: 0.998
19,COCCCOc1cc(CC(CC(N)C(O)CC(C(=O)NCC(C)(C)C(N)=O)C(C)C)C(C)C)ccc1OC.O=C(O)C=CC(=O)O (stereo not drawn),inactive: 0.978

row,SMILES,relative growth
1,C[C@@H]1CCCCO[C@H](CN(C)S(=O)(=O)c2cccs2)[C@H](C)CN([C@@H](C)CO)C(=O)c2cc(NC(=O)C3CCCCC3)ccc2O1,inactive: 1.01
2,COc1ccc(CN(C)C[C@H]2OCCCC[C@@H](C)Oc3ccc(NC(=O)c4ccccc4)cc3C(=O)N([C@H](C)CO)C[C@@H]2C)cc1,inactive: 1.03
3,CO[C@@H]1CN(C)C(=O)c2cc(NS(=O)(=O)CC(F)(F)F)ccc2OC[C@H](C)N(C(=O)c2ccc3c(c2)OCO3)C[C@@H]1C,inactive: 0.99
4,O=C(C1=C[C@H](c2ccc3c(c2)OCO3)C[C@H](OCCCCO)O1)N1CCN(Cc2ccc3c(c2)OCO3)CC1,inactive: 1
5,CCCNC(=O)N[C@@H]1CC[C@H](CC(=O)N2CCN(C)CC2)O[C@@H]1CO,inactive: 0.983
6,COc1ccccc1C#Cc1ccc2c(c1)O[C@@H](CN(C)C(C)=O)[C@H](C)CN([C@H](C)CO)S2(=O)=O,inactive: 1.01
7,CC(C)NC(=O)N(C)C[C@@H]1Oc2c(NC(=O)C3CCOCC3)cccc2C(=O)N([C@H](C)CO)C[C@H]1C,inactive: 0.996
8,C[C@H]1CN([C@@H](C)CO)C(=O)Cc2cc(N(C)C)ccc2O[C@@H]1CN(C)S(=O)(=O)c1cn(C)cn1,inactive: 0.969
9,CN(C)Cc1cn(CC[C@H]2CC[C@@H](N)[C@H](CO)O2)nn1,inactive: 0.998
10,CN1CCN(C(=O)C[C@@H]2CC[C@H](NC(=O)c3ccc4c(c3)OCO4)[C@@H](CO)O2)CC1,inactive: 0.981
11,Cc1noc(C)c1NC(=O)Nc1ccc2c(c1)CC(=O)N([C@H](C)CO)C[C@@H](C)[C@H](CN(C)S(=O)(=O)c1ccccc1)O2,inactive: 0.999
12,C[C@@H]1CN([C@H](C)CO)C(=O)c2c(c3ccccc3n2C)-c2ccccc2CO[C@@H]1CN(C)C(=O)N[C@H](C)c1ccccc1,inactive: 1.01
13,C[C@@H]1CN([C@@H](C)CO)S(=O)(=O)c2ccc(C#CC3(O)CCCC3)cc2O[C@H]1CN(C)C(=O)c1ccccc1,inactive: 1
14,COc1ccc(CN(C)C[C@H]2OCCCC[C@@H](C)Oc3ccc(NC(=O)CCC(F)(F)F)cc3C(=O)N([C@H](C)CO)C[C@@H]2C)cc1,inactive: 1.01
15,O=C(C[C@H]1CC[C@@H]2[C@H](COC[C@H](O)CN2C(=O)Nc2ccc3c(c2)OCO3)O1)N1CCN(c2ccccc2)CC1,inactive: 0.988
16,C[C@@H]1CN([C@@H](C)CO)C(=O)Cc2cc(NC(=O)CCC(F)(F)F)ccc2O[C@H]1CN(C)Cc1ccc(C(=O)Nc2ccccc2N)cc1,inactive: 0.997
17,CCN(CC)C(=O)c1ccc[n+](CC(N)=O)c1,inactive: 1
18,C[C@@H]1CN([C@@H](C)CO)C(=O)c2cccc(NC(=O)c3ccc(-c4nccs4)cc3)c2O[C@@H]1CN(C)Cc1ccc(C(=O)O)cc1,inactive: 1.02
19,C[C@@H]1CCCCO[C@H](CN(C)C(=O)c2ccccc2)[C@@H](C)CN([C@H](C)CO)C(=O)c2cc(NC(=O)Nc3ccc4c(c3)OCO4)ccc2O1,inactive: 0.986
